From ChEMBL document CHEMBL4689842, “EUbOPEN Chemogenomics Library wave 1” (2021)
Some entries of the source have several records that differ or are many. The list is limited to them. An entry can have further records. Results that share an entry are repeated measurements across runs, samples, wells, individuals or studies.

Key:
Type in all cases: toxicity, cell-based
Fibroblast = assay: Multiplex assay against human fibroblast
In short: (§1)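 Four dyes were applied at seeding to live cells: Hoechst33342, BioTracker Green Microtubule Cytoskeleton Dye, MitoTracker Red and Annexin V Alexa Fluor 680. Imaging after compound addition used a CQ1 microscope at 37°C and 5% CO2. CellPathfinder machine-learning gating then sorted cells into Hoechst high-intensity objects or normal cells, normal cells into healthy, pyknosed or fragmented nuclei, and pyknosed cells into mitotic or apoptotic, with tubulin, mitochondrial-mass and membrane-permeability phenotypes given as per cents of healthy-nucleus cells.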

HEK-293T = assay: Multiplex assay against HEK293T; details: human; in short: as §1;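 on Population Tubulin-Different-Phenotype (%): share of the cells with healthy nuclei that show this phenotype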
U2OS = assay: Multiplex assay against U2OS; details: human; in short: as §1
[1] = 12 h, 1 µM, compound concentration 1 uM, replicate 1
[2] = 12 h, 1 µM, compound concentration 1 uM, replicate 2
[3] = 24 h, 1 µM, compound concentration 1 uM, replicate 1
[4] = 24 h, 1 µM, compound concentration 1 uM, replicate 2
[5] = 12 h, 10 µM, compound concentration 10 uM, replicate 2
[6] = 24 h, 10 µM, compound concentration 10 uM, replicate 2
[7] = 24 h, 10 µM, compound concentration 10 uM, replicate 1
[8] = 12 h, 10 µM, compound concentration 10 uM, replicate 1

CN([C@@H](Cc1ccc(OS(=O)(=O)c2cccc3cnccc23)cc1)C(=O)N1CCN(c2ccccc2)CC1)S(=O)(=O)c1cccc2cnccc12
Population Mitochondria Different-Phenotype (%) (Fibroblast; [1]): 3% and 12% | Population Membrane Permeable-Phenotype (%) (Fibroblast; [2]): 17% and 60% | Population Mitochondria Different-Phenotype (%) (Fibroblast; [3]): 17% and 5% | Population Apoptotic (%) (Fibroblast; [4]): 100% and 16% | Population Mitotic Cells (%) (Fibroblast; [4]): 0% and 83%

CCN(CC)S(=O)(=O)Nc1cccc(-c2ccc3c(NC(=O)C4CC4)n[nH]c3c2)c1
Population Mitochondria Different-Phenotype (%) (Fibroblast; [5]): 20% and 5% | Population Apoptotic (%) (Fibroblast; [6]): 14% and 75% | Population Mitochondria Different-Phenotype (%) (Fibroblast; [6]): 5% and 28% | Population Mitotic Cells (%) (Fibroblast; [6]): 85% and 25% | Population Tubulin-Different-Phenotype (%) (Fibroblast; [6]): 10% and 57% | Population Fragmented Nuclei (%) (HEK-293T; [5]): 3% and 10% | Population Mitochondria Different-Phenotype (%) (HEK-293T; [5]): 26% and 6% | Population Pyknosed Nuclei (%) (HEK-293T; [5]): 20% and 4% | Population Mitochondria Different-Phenotype (%) (HEK-293T; [7]): 11% and 1% | Population Pyknosed Nuclei (%) (HEK-293T; [7]): 43% and 8% | Population Tubulin-Different-Phenotype (%) (HEK-293T; [7]): 8% and 1% | Population Fragmented Nuclei (%) (HEK-293T; [6]): 30% and 3% | Population Pyknosed Nuclei (%) (HEK-293T; [6]): 2% and 25% | Population Tubulin-Different-Phenotype (%) (HEK-293T; [6]): 4% and 31% | Total Cell Count (HEK-293T; [6]): 3004 and 923 | Population Membrane Permeable-Phenotype (%) (U2OS; [5]): 19% and 5% | Population Mitochondria Different-Phenotype (%) (U2OS; [5]): 25% and 6% | Population Fragmented Nuclei (%) (U2OS; [7]): 8% and 1% | Population Membrane Permeable-Phenotype (%) (U2OS; [7]): 19% and 4% | Population Tubulin-Different-Phenotype (%) (U2OS; [7]): 8% and 25% | Population Pyknosed Nuclei (%) (U2OS; [6]): 17% and 5%

Cl.O=C(c1ccc(Nc2nccc(-c3cc4ccccc4s3)n2)cc1)N1CCC(N2CCCC2)CC1
Population Membrane Permeable-Phenotype (%) (Fibroblast; [8]): 46% and 13% | Population Healthy Nuclei (%) (Fibroblast; [7]): 9% and 2% | Population Healthy Nuclei (%) (Fibroblast; [6]): 3% and 16% | Population Mitochondria Different-Phenotype (%) (Fibroblast; [6]): 0% and 100% | Total Cell Count (HEK-293T; [8]): 826 and 177 | Population Apoptotic (%) (HEK-293T; [5]): 24% and 88% | Population Healthy Nuclei (%) (HEK-293T; [5]): 38% and 2% | Population Mitotic Cells (%) (HEK-293T; [5]): 75% and 11% | Total Cell Count (HEK-293T; [5]): 1190 and 173 | Population Mitochondria Different-Phenotype (%) (HEK-293T; [7]): 0% and 65% | Population Tubulin-Different-Phenotype (%) (HEK-293T; [7]): 0% and 78% | Total Cell Count (HEK-293T; [7]): 170 and 783 | Population Healthy Nuclei (%) (HEK-293T; [6]): 13% and 4% | Population Mitotic Cells (%) (HEK-293T; [6]): 41% and 0% | Total Cell Count (HEK-293T; [6]): 953 and 169 | Population Hoechst High Intensity Objects (%) (U2OS; [5]): 21% and 6% | Population Mitotic Cells (%) (U2OS; [5]): 6% and 29%

COc1cc(N2CCC(N3CCN(C)CC3)CC2)ccc1Nc1ncnc(Nc2ccccc2S(=O)(=O)C(C)C)n1 [ASP-3026]
Population Tubulin-Different-Phenotype (%) (Fibroblast; [8]): 50% and 7% | Population Tubulin-Different-Phenotype (%) (Fibroblast; [5]): 66% and 18% | Population Tubulin-Different-Phenotype (%) (Fibroblast; [7]): 44% and 4% | Population Mitochondria Different-Phenotype (%) (Fibroblast; [6]): 42% and 0% | Population Mitotic Cells (%) (Fibroblast; [6]): 50% and 0% | Population Tubulin-Different-Phenotype (%) (Fibroblast; [6]): 57% and 13%

Cn1nc(C(=O)NCc2ccc(C(=O)O)cc2)cc1-c1ccc2[nH]ccc2c1 [BI 4395]
Population Membrane Permeable-Phenotype (%) (Fibroblast; [8]): 10% and 3% | Population Mitotic Cells (%) (Fibroblast; [5]): 57% and 0% | Population Pyknosed Nuclei (%) (Fibroblast; [5]): 17% and 5% | Population Tubulin-Different-Phenotype (%) (Fibroblast; [5]): 33% and 0% | Population Apoptotic (%) (Fibroblast; [6]): 0% and 100% | Population Apoptotic (%) (HEK-293T; [6]): 1% and 8% | Population Apoptotic (%) (U2OS; [5]): 50% and 0%

COCC(=O)NC/C=C/c1ccc2ncnc(Nc3ccc(Oc4ccc(C)nc4)c(C)c3)c2c1 [CP-724714]
Population Mitochondria Different-Phenotype (%) (Fibroblast; [1]): 12% and 2% | Population Tubulin-Different-Phenotype (%) (Fibroblast; [1]): 73% and 12% | Population Apoptotic (%) (Fibroblast; [2]): 12% and 72% | Population Mitochondria Different-Phenotype (%) (Fibroblast; [2]): 11% and 44% | Population Mitotic Cells (%) (Fibroblast; [2]): 87% and 27% | Population Membrane Permeable-Phenotype (%) (Fibroblast; [3]): 15% and 4% | Population Mitochondria Different-Phenotype (%) (Fibroblast; [3]): 20% and 2% | Population Tubulin-Different-Phenotype (%) (Fibroblast; [3]): 70% and 7% | Population Tubulin-Different-Phenotype (%) (Fibroblast; [4]): 11% and 66% | Population Membrane Permeable-Phenotype (%) (HEK-293T; [1]): 30% and 5% | Population Mitochondria Different-Phenotype (%) (HEK-293T; [1]): 30% and 6% | Population Tubulin-Different-Phenotype (%) (HEK-293T; [1]): 91% and 8% | Population Fragmented Nuclei (%) (HEK-293T; [2]): 1% and 5% | Population Membrane Permeable-Phenotype (%) (HEK-293T; [2]): 15% and 4% | Population Mitochondria Different-Phenotype (%) (HEK-293T; [2]): 54% and 10% | Population Pyknosed Nuclei (%) (HEK-293T; [2]): 27% and 5% | Population Tubulin-Different-Phenotype (%) (HEK-293T; [2]): 98% and 13% | Population Mitochondria Different-Phenotype (%) (HEK-293T; [3]): 44% and 4% | Population Pyknosed Nuclei (%) (HEK-293T; [3]): 32% and 9% | Population Tubulin-Different-Phenotype (%) (HEK-293T; [3]): 92% and 11% | Population Fragmented Nuclei (%) (HEK-293T; [4]): 3% and 20% | Population Mitochondria Different-Phenotype (%) (HEK-293T; [4]): 60% and 2% | Population Pyknosed Nuclei (%) (HEK-293T; [4]): 31% and 2% | Population Tubulin-Different-Phenotype (%) (HEK-293T; [4]): 96% and 17% | Population Apoptotic (%) (U2OS; [2]): 46% and 0% | Population Pyknosed Nuclei (%) (U2OS; [2]): 14% and 3% | Population Tubulin-Different-Phenotype (%) (U2OS; [2]): 100% and 20% | Population Membrane Permeable-Phenotype (%) (U2OS; [3]): 39% and 10% | Population Mitochondria Different-Phenotype (%) (U2OS; [3]): 51% and 11% | Population Tubulin-Different-Phenotype (%) (U2OS; [4]): 100% and 19%

C[C@H]1Oc2cc(cnc2N)-c2c(nn(C)c2C#N)CN(C)C(=O)c2ccc(F)cc21 [LORLATINIB]
Population Tubulin-Different-Phenotype (%) (Fibroblast; [1]): 41% and 7% | Population Mitochondria Different-Phenotype (%) (Fibroblast; [2]): 6% and 28% | Population Mitochondria Different-Phenotype (%) (Fibroblast; [3]): 4% and 1% | Population Tubulin-Different-Phenotype (%) (Fibroblast; [3]): 28% and 6% | Population Healthy Nuclei (%) (Fibroblast; [4]): 7% and 25% | Population Pyknosed Nuclei (%) (Fibroblast; [4]): 36% and 8% | Population Fragmented Nuclei (%) (U2OS; [2]): 5% and 19%

CN1CCN(C(=O)C(C)(C)c2ccc(C(=O)Nc3cn4cc(-c5ccncc5)ccc4n3)cc2)CC1 [T3-CLK]
Population Membrane Permeable-Phenotype (%) (Fibroblast; [8]): 35%, 18%, 10% | Population Tubulin-Different-Phenotype (%) (Fibroblast; [8]): 66%, 17%, 7% | Population Apoptotic (%) (Fibroblast; [5]): 100% and 0% | Population Fragmented Nuclei (%) (Fibroblast; [5]): 48%, 74%, 18% | Population Healthy Nuclei (%) (Fibroblast; [5]): 45%, 16%, 70% | Population Hoechst High Intensity Objects (%) (Fibroblast; [5]): 26%, 50%, 7% | Population Mitochondria Different-Phenotype (%) (Fibroblast; [5]): 20%, 0%, 74% | Population Mitotic Cells (%) (Fibroblast; [5]): 0% and 100% | Population Membrane Permeable-Phenotype (%) (Fibroblast; [7]): 20%, 32%, 8% | Population Mitochondria Different-Phenotype (%) (Fibroblast; [7]): 1%, 7%, 2% | Population Tubulin-Different-Phenotype (%) (Fibroblast; [7]): 28%, 70%, 8% | Population Apoptotic (%) (Fibroblast; [6]): 100%, 22%, 66% | Population Fragmented Nuclei (%) (Fibroblast; [6]): 70%, 22%, 42% | Population Healthy Nuclei (%) (Fibroblast; [6]): 19%, 66%, 51% | Population Hoechst High Intensity Objects (%) (Fibroblast; [6]): 41%, 9%, 38% | Population Mitochondria Different-Phenotype (%) (Fibroblast; [6]): 0%, 80%, 20% | Population Mitotic Cells (%) (Fibroblast; [6]): 0%, 77%, 33% | Population Apoptotic (%) (HEK-293T; [8]): 82% and 22% | Population Fragmented Nuclei (%) (HEK-293T; [8]): 12%, 16%, 5% | Population Healthy Nuclei (%) (HEK-293T; [8]): 17%, 59%, 66% | Population Mitochondria Different-Phenotype (%) (HEK-293T; [8]): 93%, 14%, 8% | Population Mitotic Cells (%) (HEK-293T; [8]): 17% and 77% | Population Tubulin-Different-Phenotype (%) (HEK-293T; [8]): 90%, 62%, 13% | Total Cell Count (HEK-293T; [8]): 222, 797, 697 | Population Apoptotic (%) (HEK-293T; [5]): 50%, 20%, 8% | Population Healthy Nuclei (%) (HEK-293T; [5]): 25%, 78%, 81% | Population Mitochondria Different-Phenotype (%) (HEK-293T; [5]): 70%, 37%, 15% | Population Pyknosed Nuclei (%) (HEK-293T; [5]): 69%, 18%, 12% | Total Cell Count (HEK-293T; [5]): 154, 950, 1570 | Population Apoptotic (%) (HEK-293T; [7]): 92%, 34%, 25% | Population Healthy Nuclei (%) (HEK-293T; [7]): 12%, 58%, 79% | Population Mitochondria Different-Phenotype (%) (HEK-293T; [7]): 95%, 28%, 9% | Population Mitotic Cells (%) (HEK-293T; [7]): 7%, 65%, 74% | Population Pyknosed Nuclei (%) (HEK-293T; [7]): 72%, 24%, 14% | Total Cell Count (HEK-293T; [7]): 225, 735, 914 | Population Apoptotic (%) (HEK-293T; [6]): 81%, 8%, 26% | Population Healthy Nuclei (%) (HEK-293T; [6]): 25%, 89%, 85% | Population Hoechst High Intensity Objects (%) (HEK-293T; [6]): 8%, 2%, 5% | Population Mitochondria Different-Phenotype (%) (HEK-293T; [6]): 85%, 11%, 50% | Population Mitotic Cells (%) (HEK-293T; [6]): 18%, 91%, 73% | Population Pyknosed Nuclei (%) (HEK-293T; [6]): 70%, 2%, 10% | Total Cell Count (HEK-293T; [6]): 147, 2020, 975 | Population Fragmented Nuclei (%) (U2OS; [8]): 3% and 17% | Population Membrane Permeable-Phenotype (%) (U2OS; [8]): 60%, 15%, 27% | Population Mitochondria Different-Phenotype (%) (U2OS; [8]): 9%, 73%, 11% | Population Tubulin-Different-Phenotype (%) (U2OS; [8]): 77%, 97%, 12% | Population Apoptotic (%) (U2OS; [5]): 50%, 0%, 33% | Population Fragmented Nuclei (%) (U2OS; [5]): 5%, 18%, 8% | Population Mitochondria Different-Phenotype (%) (U2OS; [5]): 33%, 74%, 22% | Population Tubulin-Different-Phenotype (%) (U2OS; [5]): 61%, 94%, 11% | Total Cell Count (U2OS; [5]): 91, 57, 383 | Population Mitochondria Different-Phenotype (%) (U2OS; [7]): 30%, 73%, 17% | Population Tubulin-Different-Phenotype (%) (U2OS; [7]): 83%, 98%, 18% | Population Mitochondria Different-Phenotype (%) (U2OS; [6]): 32%, 80%, 16% | Population Tubulin-Different-Phenotype (%) (U2OS; [6]): 54%, 88%, 16% | Total Cell Count (U2OS; [6]): 95, 57, 301
